{"source": "the supplement of paper PMC8728848", "experiment_in_all_cases": "glycan array binding signal (z-score within array); higher = stronger binding", "details_in_all_cases": "glycan notation: IUPAC condensed, linker removed", "key": {"Gal(b1-2)Gal": {"biological_target": "Gal(b1-2)Gal", "procedure,_shortened": "(§1)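 The binding signal is a Z-score computed within each array and averaged over linkers. Arrays of the same protein sequence at different concentrations or buffers were also averaged together. Data originate from 3228 arrays in the Consortium for Functional Glycomics database, kept only where the protein sequence was available.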"}, "Gal(b1-3)Gal": {"biological_target": "Gal(b1-3)Gal", "procedure,_shortened": "as §1"}, "Gal(b1-3)Gal(b1-4)GlcNAc": {"biological_target": "Gal(b1-3)Gal(b1-4)GlcNAc", "procedure,_shortened": "as §1"}, "Gal(b1-3)GalNAc": {"biological_target": "Gal(b1-3)GalNAc", "procedure,_shortened": "as §1"}, "[1]": {"biological_target": "Gal(b1-3)GalNAc(b1-3)Gal(a1-4)Gal(b1-4)Glc", "procedure,_shortened": "as §1"}, "[2]": {"biological_target": "Gal(b1-3)GalNAc(b1-4)Gal(b1-4)Glc", "procedure,_shortened": "as §1"}, "[3]": {"biological_target": "Gal(b1-3)GalNAc(b1-4)[Neu5Ac(a2-3)]Gal(b1-4)Glc", "procedure,_shortened": "as §1"}, "Gal(b1-3)GlcNAc": {"biological_target": "Gal(b1-3)GlcNAc", "procedure,_shortened": "as §1"}, "[4]": {"biological_target": "Gal(b1-3)GlcNAc(b1-2)Man(a1-3)[Gal(b1-3)GlcNAc(b1-2)Man(a1-6)]Man(b1-4)GlcNAc(b1-4)GlcNAc", "procedure,_shortened": "as §1"}, "[5]": {"biological_target": "Gal(b1-3)GlcNAc(b1-3)Gal(b1-3)GlcNAc", "procedure,_shortened": "as §1"}, "[6]": {"biological_target": "Gal(b1-3)GlcNAc(b1-3)Gal(b1-4)Glc", "procedure,_shortened": "as §1"}, "[7]": {"biological_target": "Gal(b1-3)GlcNAc(b1-3)Gal(b1-4)GlcNAc", "procedure,_shortened": "as §1"}, "[8]": {"biological_target": "Gal(b1-3)[Fuc(a1-4)]GlcNAc", "procedure,_shortened": "as §1"}, "[9]": {"biological_target": "Gal(b1-3)[Fuc(a1-4)]GlcNAc(b1-3)Gal(b1-3)[Fuc(a1-4)]GlcNAc", "procedure,_shortened": "as §1"}, "[10]": {"biological_target": "Gal(b1-3)[Fuc(a1-4)]GlcNAc(b1-3)Gal(b1-4)GlcNAc", "procedure,_shortened": "as §1"}, "[11]": {"biological_target": "Gal(b1-3)[Fuc(a1-4)]GlcNAc(b1-3)Gal(b1-4)[Fuc(a1-3)]GlcNAc", "procedure,_shortened": "as §1"}, "[12]": {"biological_target": "Gal(b1-3)[GlcNAc(b1-6)]GalNAc", "procedure,_shortened": "as §1"}, "[13]": {"biological_target": "Gal(b1-3)[Neu5Ac(a2-6)]GalNAc", "procedure,_shortened": "as §1"}, "[14]": {"biological_target": "Gal(b1-3)[Neu5Ac(a2-6)]GlcNAc(b1-6)Gal(b1-4)Glc", "procedure,_shortened": "as §1"}, "[15]": {"biological_target": "Gal(b1-3)[Neu5Ac(b2-6)]GalNAc", "procedure,_shortened": "as §1"}, "[16]": {"biological_target": "Gal(b1-4)GalNAc(a1-3)[Fuc(a1-2)]Gal(b1-4)GlcNAc", "procedure,_shortened": "as §1"}, "[17]": {"biological_target": "Gal(b1-4)GalNAc(b1-3)[Fuc(a1-2)]Gal(b1-4)GlcNAc", "procedure,_shortened": "as §1"}, "Gal(b1-4)Glc": {"biological_target": "Gal(b1-4)Glc", "procedure,_shortened": "as §1"}, "Gal(b1-4)Glc6S": {"biological_target": "Gal(b1-4)Glc6S", "procedure,_shortened": "as §1"}, "Gal(b1-4)GlcNAc": {"biological_target": "Gal(b1-4)GlcNAc", "procedure,_shortened": "as §1"}, "[18]": {"biological_target": "Gal(b1-4)GlcNAc(a1-6)Gal(b1-4)GlcNAc", "procedure,_shortened": "as §1"}, "[19]": {"biological_target": "Gal(b1-4)GlcNAc(b1-2)Man(a1-3)[Gal(b1-4)GlcNAc(b1-2)Man(a1-6)]Man(b1-4)GlcNAc(b1-4)GlcNAc", "procedure,_shortened": "as §1"}, "[20]": {"biological_target": "Gal(b1-4)GlcNAc(b1-3)Gal(b1-3)GlcNAc", "procedure,_shortened": "as §1"}, "[21]": {"biological_target": "Gal(b1-4)GlcNAc(b1-3)Gal(b1-4)Glc", "procedure,_shortened": "as §1"}, "[22]": {"biological_target": "Gal(b1-4)GlcNAc(b1-3)Gal(b1-4)GlcNAc", "procedure,_shortened": "as §1"}}, "note": "Some of the results follow.", "data": [{"binder": "LSECtin (Homo sapiens), Q6UXB4 (protein) MEQESALRELRERVTQGLAEAGRGREDVRTELFRALEAVRLQNNSCEPCPTSWLSFEGSCYFFSVPKTTWAAAQDHCADASAHLVIVGGLDEQGFLTRNTRGRGYWLGLRAVRHLGKVQGYQWVDGVSLSFSHWNQGEPNDAWGRENCVMMLHTGLWNDAPCDSEKDGWICEKKAQLLTPPSALEPRPLQHVVSWGLLTSLAPGADCQRVFSSSSTAAESQKHLAQHSPVQPSAWALGPPCRPHPNSTHADPT", "values": [{"measurement": "glycan array binding signal (z-score)", "setting": "Gal(b1-2)Gal", "result": -0.302}, {"measurement": "glycan array binding signal (z-score)", "setting": "Gal(b1-3)Gal", "result": -0.288}, {"measurement": "glycan array binding signal (z-score)", "setting": "Gal(b1-3)Gal(b1-4)GlcNAc", "result": -0.304}, {"measurement": "glycan array binding signal (z-score)", "setting": "Gal(b1-3)GalNAc", "result": -0.305}, {"measurement": "glycan array binding signal (z-score)", "setting": "[1]", "result": -0.285}, {"measurement": "glycan array binding signal (z-score)", "setting": "[2]", "result": -0.293}, {"measurement": "glycan array binding signal (z-score)", "setting": "[3]", "result": -0.305}, {"measurement": "glycan array binding signal (z-score)", "setting": "Gal(b1-3)GlcNAc", "result": -0.278}, {"measurement": "glycan array binding signal (z-score)", "setting": "[4]", "result": -0.228}, {"measurement": "glycan array binding signal (z-score)", "setting": "[5]", "result": -0.298}, {"measurement": "glycan array binding signal (z-score)", "setting": "[6]", "result": -0.295}, {"measurement": "glycan array binding signal (z-score)", "setting": "[7]", "result": -0.302}, {"measurement": "glycan array binding signal (z-score)", "setting": "[8]", "result": -0.237}, {"measurement": "glycan array binding signal (z-score)", "setting": "[9]", "result": -0.278}, {"measurement": "glycan array binding signal (z-score)", "setting": "[10]", "result": -0.281}, {"measurement": "glycan array binding signal (z-score)", "setting": "[11]", "result": -0.241}, {"measurement": "glycan array binding signal (z-score)", "setting": "[12]", "result": -0.298}, {"measurement": "glycan array binding signal (z-score)", "setting": "[13]", "result": -0.299}, {"measurement": "glycan array binding signal (z-score)", "setting": "[14]", "result": -0.298}, {"measurement": "glycan array binding signal (z-score)", "setting": "[15]", "result": -0.305}, {"measurement": "glycan array binding signal (z-score)", "setting": "[16]", "result": -0.296}, {"measurement": "glycan array binding signal (z-score)", "setting": "[17]", "result": -0.236}, {"measurement": "glycan array binding signal (z-score)", "setting": "Gal(b1-4)Glc", "result": -0.306}, {"measurement": "glycan array binding signal (z-score)", "setting": "Gal(b1-4)Glc6S", "result": -0.299}, {"measurement": "glycan array binding signal (z-score)", "setting": "Gal(b1-4)GlcNAc", "result": -0.298}, {"measurement": "glycan array binding signal (z-score)", "setting": "[18]", "result": -0.297}, {"measurement": "glycan array binding signal (z-score)", "setting": "[19]", "result": 2.3}, {"measurement": "glycan array binding signal (z-score)", "setting": "[20]", "result": -0.293}, {"measurement": "glycan array binding signal (z-score)", "setting": "[21]", "result": -0.302}, {"measurement": "glycan array binding signal (z-score)", "setting": "[22]", "result": -0.297}]}]}
